The term GI50 denotes the concentration that inhibits growth by half.

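Dose response: 5 concentrations. Exposure: 48 h. Format: 96-well plates. Endpoint: linear interpolation; highest concentration if not reached. GI50 = concentration required for 50% inhibition of growth.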 Calls of active or inactive are those of the source. No stated cut-off is given here; in the data, active = GI50 up to about 1.1 µM and inactive = higher.

The results in this text go back to ChEMBL document CHEMBL1201862, “PubChem BioAssay data set” (2004).

The subject of the assay is NCI-H322M. Description: DTP human tumour cell line panel, 48 h.
As for `Cc1cc(S(=O)(=O)Nc2nc3ccccc3[nH]2)c(S)cc1Cl`, the GI50 is inactive: 55.2 µM. For the compound `COC(=O)c1ccccc1CC1Cc2cc3c(cc2C1=O)CCC3` (configuration not stated), the GI50 was inactive: > 73.3 µM. Consider `CC(=O)/C(=C\n1c(=S)[nH]c2ccc([N+](=O)[O-])cc21)C(=O)Nc1ccccc1C`, for which the GI50 was inactive: > 100 µM.

On to `CC(C(O)c1ccccc1)N(C)/N=N/c1nc2c([nH]1)c(=O)n(C)c(=O)n2C` (configuration not stated), for which the GI50 was inactive: > 100 µM. For `Cn1c(=O)c2c(nc3sc4ccccc4c(=O)n32)n(C)c1=O` the value was inactive: > 100 µM. `CN(C)CCCn1cnc2ncccc2c1=O`: the GI50 is inactive: > 100 µM. For `Nc1ccn(C2CC(O)C(COP(=O)(S)OC3CC(n4ccc(N)nc4=O)OC3CO)O2)c(=O)n1` (configuration not stated) the value was inactive: > 100 µM; for `COc1cc(C(C)c2cc3c(cc2OCCNC(=O)COc2cc4c(cc2C(C)c2cc(OC)c(OC)c(OC)c2)OCO4)OCO3)cc(OC)c1OC` (configuration not stated), inactive: > 100 µM; for `COc1ccc(C2C(=O)c3c(OC)cc(OC)cc3OC2c2cccnc2)cc1` (configuration not stated), inactive: > 100 µM. In the case of `O=c1c2sc3ccccc3sc=2c(=O)c2c(Cl)c(Cl)c(Cl)c(Cl)c12` it was inactive: > 100 µM; in that of `CN(C)c1ccc2c(c1)oc(=O)c1ccccc12`, inactive: 14.6 µM; in that of `Cc1c(C)c(C)c(-n2c(=O)n(C)c(=O)n2-c2cc(C(C)(C)C)cc(C(C)(C)C)c2O)c(C)c1C`, inactive: 13.4 µM. In the case of `COc1ccc(C2=CC(C(C)=C(C(N)=O)C(N)=O)C=C(c3ccc(Br)cc3)C2)c(OC)c1` (configuration not stated) it was inactive: > 100 µM; in that of `COc1ccc(-n2c(N)c(C#N)c(C#N)c2-c2cccc([N+](=O)[O-])c2)cc1`, inactive: > 100 µM.

In the case of `C=C(C)[C@H]1C2=CC(C(=O)OC)=C(C[C@H](C(=C)C)[C@@H](O)[C@@H](O)C3=C[C@H]1OC3=O)O2`, the GI50 is inactive: > 100 µM. In the case of `COc1cc(C(CN)N(C)C)cc(OC)c1OC` (configuration not stated) it was inactive: > 100 µM; in that of `CN(C)/C=N/c1cc(=O)n(C)c(=O)n1C`, inactive: > 100 µM. As for `Cc1ccc(O)c(C2=CC3=NNC(=O)C3C(c3cccc(Cl)c3)C2)c1` (configuration not stated), the GI50 is inactive: 18.7 µM. In the case of `C=C([C@@]1(O)C[C@H]2[C@H](CCC2(OC)OC)[C@@H]2c3ccccc3O[C@@H]21)[Si](C)(C)C` it was inactive: > 100 µM; in that of `CC(C)(C)c1cc(C(C)(C)C)c2c(c1O)OC(=O)CS2`, inactive: 14.3 µM; in that of `CCn1c(-c2ccccc2)nc2c1C(=O)c1ccccc1C2=O`, inactive: 31.8 µM. For `C[C@]1(CO)[C@H]2CC[C@@]34C=C[C@@](CO)(CC[C@H]3[C@]2(C)CC[C@H]1O)C4` the value was inactive: > 100 µM; for `N#Cc1nc(-c2cc([N+](=O)[O-])cc([N+](=O)[O-])c2)oc1N`, inactive: > 10 µM. For `CCOC(=O)/C=C(/C(=O)OCC)n1cc(C)c(=O)n(Cc2cnnn2CCCCOC(C)=O)c1=O` the value was inactive: > 100 µM; for `COc1cc(/C=N/N=C(\N)NO)c([N+](=O)[O-])cc1OC`, inactive: 8.53 µM.

As for `Cc1ccc(C)n1-c1ccccc1C1SCCCS1`, the GI50 is inactive: > 100 µM. For `CNC(=O)OCC1=C(COC(=O)NC)C(C)N(c2ccc(OC)cc2)C1` (configuration not stated) the value was inactive: > 100 µM; for `CCOP(=O)(OCC)/C(C#N)=C/c1ncc[nH]1`, inactive: > 100 µM; for `COC(=O)C(/C(=N/NC(=O)c1ccncc1)C(=O)Nc1ccccc1OC)c1nc2ccc(Cl)cc2nc1O` (configuration not stated), inactive: > 100 µM.

Consider `N#C/C(C(=S)NCc1ccccc1)=C(/N)N1CCCC1`, for which the GI50 was inactive: > 100 µM. As to `COc1cc(-c2ccccc2)c(OC)cc1CCl`, the GI50 is inactive: > 100 µM. On to `CN(C)CCCNc1ncnc2c1ncn2C1OC(CO)C(O)C1O` (configuration not stated), for which the GI50 was inactive: > 100 µM. In the case of `COc1ccc2oc(=O)c(CC=C(C)C)c(O)c2c1C` it was inactive: > 100 µM. For `O=c1[nH]c2nccn2c2c1SCCN2` the value was inactive: > 100 µM. In the case of `CC(=O)NC1C(OCc2ccccc2)OC(CO)C(O)C1OCC(=O)N[C@@H](C)C(=O)N[C@H](CCC(=O)NCCNCCNc1c2ccccc2nc2cccc([N+](=O)[O-])c12)C(N)=O` (some centres not stated) it was inactive: 46.2 µM; in that of `O=C1CCN(CCC(F)(F)C(F)(F)C(F)(F)C(F)(F)C(F)(F)C(F)(F)F)C(=S)N1CCC(F)(F)C(F)(F)C(F)(F)C(F)(F)C(F)(F)C(F)(F)F`, inactive: > 100 µM.

Take `C/C(=N\Nc1nc2ccccc2n1C)c1cc2ccccc2cn1`: the GI50 was active: < 0.0323 µM. For `NS(=O)(=O)c1ccc(NCc2cccc3c(=O)c4ccc(Cl)cc4oc23)cc1` the value was inactive: > 60.7 µM; for `COc1ccccc1C(=O)OCC1CCCN2CCCCC12` (configuration not stated), inactive: 79.3 µM; for `CC(C#N)(NO)C(C)(C#N)NO` (configuration not stated), inactive: > 100 µM. Regarding `O=C1C(O)=C(Cl)C(=O)c2c(O)ccc(O)c21`, the GI50 was inactive: > 100 µM. For `Cc1ccc(S(=O)(=O)N/N=C(\c2nc3ccc([N+](=O)[O-])cc3nc2O)C(O)c2ccccc2Cl)cc1` (configuration not stated) the value was inactive: > 100 µM. In the case of `CC(=O)OC1=C2CC[C@@H]3C(CC[C@@]4(C)C3CC[C@@H]4OC(C)=O)[C@@]2(C)CC(C#N)C1=O` (some centres not stated) it was inactive: 22 µM; in that of `CC1CCCC(C(=O)/C(=C/c2cccc(Cl)c2)C(=O)C(=O)O)C1` (configuration not stated), inactive: > 100 µM. `NNC(=O)C(O)C(O)C(O)CO` (configuration not stated): the GI50 is inactive: > 100 µM. In the case of `CC(C)=CCC[C@@H](C)C1=C(O)C(=O)C(C)=C(Nc2ccccc2Br)C1=O` it was inactive: 18.9 µM; in that of `CCCCCCCC(CC(=O)O)OC(=O)CC(CCCCCCC)OC1OC(C)C(O)C(O)C1OC1OC(C)C(O)C(O)C1O` (configuration not stated), inactive: > 100 µM; in that of `Cc1cc2c(c(C#N)c1C)NC(=O)CCC2=O`, inactive: > 100 µM. Turning to `C[Si](C)(C)/C(Br)=C\CCN1C(=O)CCC1=O`, the GI50 is inactive: > 100 µM. In the case of `CC1(c2ccccc2)CCN(C2CC2)CO1` (configuration not stated) it was inactive: > 100 µM. For `COc1cc(CNC2c3cc4c(cc3C(c3cc(OC)c(OC)c(OC)c3)[C@H]3C(=O)OCC23)OCO4)cc(OC)c1OC` (some centres not stated) the value was active: 0.481 µM. For `CC(=O)O[C@@H]1CC[C@@]2(C)C(=O)C34C[C@@]5(C)C([C@@H](C)CCCC(C)C)CCC5(C)[C@](O)(O3)C(=O)[C@H]4C2C1(C)C` (some centres not stated) the value was inactive: 19.1 µM; for `COc1cc2c(c(OC)c1OC)-c1ccc(OC)c(=O)cc1[C@@H](NC(=O)c1ccccc1)CC2`, active: 0.0176 µM; for `COc1ccc(CNc2cc(OC)cc(OC)c2)cc1`, inactive: 57.8 µM. Consider `C[n+]1ccc(/C2=C3\C=CC(=N3)/C(c3cc[n+](C)cc3)=c3/cc/c([nH]3)=C(\c3cc[n+](C)cc3)C3=N/C(=C(/c4cc[n+](C)cc4)C4C=CC2N4)C=C3)cc1`, for which the GI50 was inactive: > 100 µM.

As to `NNC(=O)C1CCC(=O)N1S(=O)(=O)c1ccccc1` (configuration not stated), the GI50 was inactive: > 100 µM. Take `CCOC(=O)c1c(NC(=O)c2cccs2)sc2c1CCCC2`: the GI50 is inactive: > 66.8 µM.
